Out of some 310,000 compounds screened, about 18,000 (5.8%) were called active. Inconclusive results, whose numbers are uncertain, are shown with a selection of clear calls. Calls follow the shape of the dose curve; as a rule, active = well fitted inhibition curve with a large enough effect; inconclusive = small, poorly fitted or top-dose-only effect, or another doubt; inactive = no such curve, though single readings can be large or run the other way. No potency is given beside an inconclusive call; the fits are too rough.
Assay: Primary qHTS for delayed death inhibitors of the malarial parasite plastid, 48 hour incubation
Conditions: P. falciparum luciferase growth in erythrocytes; series mostly up to 28.7 µM
Summary of the method: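 Parasite viability was followed by luminescence of a genomically integrated firefly luciferase. Cultures held 0.1% parasitemia at 2% hematocrit (final), incubated under 5% CO2 at 37 C.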
In the case of `Cc1cccn2c(=O)nc(SCC(=O)N3N=C(c4cccs4)CC3c3ccc(F)cc3)nc12` (stereo not given), the Potency is reported as active: 8.28 µM.
With `CCN(CC)C(=O)Cn1cnc2sc(C)c(S(=O)(=O)N3CCC(C)CC3)c2c1=O` the Potency was “inactive”.
For `Cc1cc(C(=O)OCC(N)=O)c(C)n1-c1ccccc1`, the Potency was inconclusive [inhibitor, partial curve, poor fit].
For `CC(C)(C)NC(=O)c1cc(C(C)(C)C)c(O)c(C(C)(C)C)c1`, the Potency was inconclusive [inhibitor, single point].
In the case of `COc1ccc(NC(=O)CN(C)C(=O)c2ccc(NS(=O)(=O)c3cccc([N+](=O)[O-])c3)cc2)cc1`, the Potency is reported as “inactive”.
In the case of `CCCCOc1ccc(C(=O)NCC(=O)N2CCN(C(=O)c3ccco3)CC2)cc1`, the Potency is reported as inconclusive [inhibitor, single point].
For `COc1cccc(NC(=O)c2ccc3c(c2)N(CC(=O)N2CCOCC2)C(=O)C(C)(C)O3)c1`, the Potency was inconclusive [inhibitor, partial curve].
In the case of `CC1CCN(S(=O)(=O)c2ccc3c(c2)N(CC(=O)NCCCOC(C)C)C(=O)CO3)CC1`, the Potency is reported as “inactive”.
In the case of `O=C(O)c1ccc(N=Nc2c(O)[nH]c3cc(Cl)ccc23)cc1`, the Potency is reported as inconclusive [inhibitor, full curve, poor fit].
For `CO[C@H](C(=O)[C@@H](O)[C@@H](C)O)C1Cc2cc3cc(O[C@H]4C[C@@H](O[C@H]5C[C@@H](O)[C@H](O)[C@@H](C)O5)[C@@H](O)[C@@H](C)O4)c(C)c(O)c3c(O)c2C(=O)[C@H]1O[C@H]1C[C@@H](O[C@H]2C[C@@H](O[C@H]3C[C@](C)(O)[C@H](O)[C@@H](C)O3)[C@H](O)[C@@H](C)O2)[C@H](O)[C@@H](C)O1` (stereo not given in full), the Potency was active: 0.0478 µM.
For `c1ccc(C2c3[nH]c4ccccc4c3CCN2Cc2cccn2-c2cccnc2)nc1` (stereo not given), the Potency was inconclusive [inhibitor, single point].
For `CCN(CC)CCNC(=O)c1ccc(NC(=O)c2ccc(Cl)c(S(=O)(=O)N3CCCCCC3)c2)cc1`, the Potency was active: 1.65 µM.
For `CCC1=NN2C(=N)/C(=C\c3cccn3-c3cccc(Cl)c3)C(=O)N=C2S1`, the Potency was inconclusive [inhibitor, full curve, poor fit].
For `COc1ccc(C(C(=O)NC2CCCC2)N(Cc2ccccc2)C(=O)c2nsc(Cl)c2Cl)cc1` (stereo not given), the Potency was inconclusive [inhibitor, single point].
With `O=C(CSc1nnc(-c2ccccc2Cl)n1Cc1ccco1)Nc1ccc2c(c1)OCCO2` the Potency was inconclusive [inhibitor, full curve, poor fit].
In the case of `O=C(NCCCN1CCC(Cc2ccccc2)CC1)c1ccc2nc(N3CCOCC3)sc2c1`, the Potency is reported as active: 10.4 µM.
For `COc1ccc(C(=O)/C=C/Sc2nc3ccccc3o2)cc1`, the Potency was inconclusive [inhibitor, single point].
For `O=C1COc2ccc(S(=O)(=O)N3CCc4ccccc43)cc2N1`, the Potency was inconclusive [inhibitor, single point].
In the case of `CCOc1cccc(OCCCCn2ccnc2)c1`, the Potency is reported as active: 11.7 µM.
For `CN(C)c1nc(Oc2ccc(=O)[nH]n2)nc(N2CCOCC2)n1`, the Potency was inconclusive [inhibitor, full curve, poor fit].
For `COc1ccc2c(c1)[C@@H]1[C@H](CO2)[C@H](c2ccccc2)[C@]2(C)C(=O)NCC(=O)N12`, the Potency was inconclusive [inhibitor, partial curve, poor fit].
With `CCN(CC)c1ccc(C(=O)NNC(=O)CNC(=O)c2ccco2)cc1` the Potency was inconclusive [inhibitor, single point].
With `NS(=O)(=O)c1ccc(N=Cc2c(O)n(-c3nccs3)c(=O)c3ccccc23)cc1` the Potency was active: 4.65 µM.
In the case of `CCN1/C(=C\c2ccc3ccccc3[n+]2CC)Sc2cc(C)ccc21`, the Potency is reported as active: 1.17 µM.
For `CC[n+]1oc(-c2ccccc2)cc1C`, the Potency was inconclusive [inhibitor, single point].
With `Cc1nc(N2CCN(C(=O)c3ccco3)CC2)c(C#N)c2c1CCCC2` the Potency was inconclusive [inhibitor, partial curve].
In the case of `O=C(COc1ccc(Cl)cc1)NCCCNC(=O)c1ccncc1`, the Potency is reported as inconclusive [inhibitor, single point].
For `C#CCOCCOCCOCCNc1nc(N2CCN(C(=O)CCCCCCCCCCNC(=O)[C@@H](CCC(=O)O)n3cc(CCCCCN)nn3)CC2)nc(N2CCN(C(=O)CCCCCCCCCCNC(=O)[C@@H](CCC(=O)O)n3cc(CCCCCN)nn3)CC2)n1`, the Potency was active: 2.94 µM.
In the case of `CCN(CC(=O)NC1CC1)S(=O)(=O)c1ccc(C)cc1`, the Potency is reported as inconclusive [inhibitor, single point].
For `CCOC(=O)C1(Cc2cccc(F)c2)CCN(C(=O)COC)CC1`, the Potency was “inactive”.
With `O=C1C(Cl)=C(NC2CCCCC2)C(=O)N1c1ccc(Cl)cc1` the Potency was inconclusive [inhibitor, partial curve].
With `CC1(C)N=C(N)N=C(N)N1c1ccc(OCCCOc2ccccc2)c(Cl)c1` the Potency was active: 0.0262 µM.
In the case of `CCNC(=S)N=Nc1c(O)n(Cc2ccc(Cl)cc2)c2ccccc12`, the Potency is reported as inconclusive [inhibitor, partial curve].
For `Cc1ccc(S(=O)(=O)N2CCC(C(=O)N3CCC[C@H]3C(=O)NCc3ccccc3)CC2)cc1`, the Potency was inconclusive [inhibitor, single point].
With `COc1ccccc1N1CCN(c2nc(N)c(C#N)c(CC#N)c2C#N)CC1` the Potency was inconclusive [inhibitor, single point].
With `Cc1ccc(NC(=O)CN2C(=O)NC3(CCCCCCC3)C2=O)cc1C` the Potency was “inactive”.
For `Cc1ccc(C(=O)N2CCN(S(=O)(=O)c3ccccc3)CC2)s1`, the Potency was inconclusive [inhibitor, single point].
In the case of `COc1ccc(C(CNc2nc(-c3cccnc3)nc3ccccc23)N(C)C)cc1` (stereo not given), the Potency is reported as inconclusive [inhibitor, partial curve].
With `O=C(Nc1ccc2c(c1)CCC2)C1CCCN(c2ncccn2)C1` (stereo not given) the Potency was “inactive”.
For `CCN(CC)c1ccc(/C=N/NC(=O)c2ccc3nc[nH]c3c2)cc1`, the Potency was inconclusive [inhibitor, single point].
For `CC1(C)Cc2c(cnn2-c2ccccc2)-c2c1c1ccccc1n2CC(O)CCl` (stereo not given), the Potency was active: 11.7 µM.
For `CCn1c(COc2ccc(=O)n(-c3ccccc3)n2)nnc1SCc1ccccc1C`, the Potency was inconclusive [inhibitor, single point].
For `CCC(Sc1nc2cc3c(cc2c(=O)n1Cc1ccco1)OCO3)C(=O)Nc1ccccc1OC` (stereo not given), the Potency was inconclusive [inhibitor, single point].
In the case of `CCc1ccc(C(=O)NCc2ccc(Cl)cc2Cl)cc1`, the Potency is reported as “inactive”.
For `O=C(NCc1ccccn1)c1ccc(Cl)c(S(=O)(=O)N2CCCCCC2)c1`, the Potency was inconclusive [inhibitor, partial curve].
In the case of `O=C(CCCSc1nnnn1-c1ccccc1)c1ccc(F)cc1`, the Potency is reported as inconclusive [inhibitor, single point].
In the case of `O=c1c2c3c(sc2nc2n1CCCCC2)CCCCC3`, the Potency is reported as “inactive”.
In the case of `Cc1nnc(NC(=O)C2CCN(c3nnnn3-c3ccccc3)CC2)s1`, the Potency is reported as inconclusive [inhibitor, partial curve, poor fit].
For `Oc1ccc2ccccc2c1/C=N/c1nccs1`, the Potency was inconclusive [inhibitor, single point].
With `COc1ccc(OC)c(S(=O)(=O)Nc2ccccc2SC)c1` the Potency was inconclusive [inhibitor, single point].
In the case of `CCOC(=O)C1=C(C)N=C2SC(C(=O)OC)=CC(=O)N2C1c1cc(OC)c(OC)c(OC)c1` (stereo not given), the Potency is reported as active: 4.65 µM.
For `O=C(Nc1cccc([N+](=O)[O-])c1)Nc1cccc([N+](=O)[O-])c1`, the Potency was inconclusive [inhibitor, partial curve, poor fit].
In the case of `COc1ccc(C2CC(c3cccs3)=NN2C(=O)COC(=O)c2cncc(Br)c2)cc1OC` (stereo not given), the Potency is reported as inconclusive [inhibitor, partial curve, poor fit].
For `Cc1ccc2c(c1)c(N=O)c(O)n2Cc1ccc(Cl)cc1`, the Potency was active: 11.7 µM.
In the case of `Cc1ccc(C2CN(CCC(N)=O)C(=O)CO2)cc1` (stereo not given), the Potency is reported as “inactive”.
With `COc1cc(C(=O)Nc2nc(OC)c(-c3ccccc3)c(OC)n2)cc(OC)c1OC` the Potency was inconclusive [inhibitor, single point].
For `COc1ccc(NC(=O)c2cccc3c2C(=O)N(C2CCCCC2)C3)cc1`, the Potency was inconclusive [inhibitor, single point].
In the case of `O=S1(=O)CCOCCCN1Cc1ccc(Cl)cc1`, the Potency is reported as “inactive”.
For `CC(CC(=O)NCc1cccnc1)c1ccccc1` (stereo not given), the Potency was “inactive”.
For `COc1ccc(OC)c(Nc2c3ccccc3nc3ccccc23)c1`, the Potency was active: 1.65 µM.
With `COc1cc(/C=N/N=C(N)N)ccc1OCc1ccc(Cl)cc1` the Potency was inconclusive [inhibitor, full curve].
For `Cc1cc(C)c2c(c1)NC(c1cc3c(cc1Br)OCO3)C1CC=CC21` (stereo not given), the Potency was active: 13.1 µM.
For `O=C(c1ccc(S(=O)(=O)Cc2ccccc2F)c([N+](=O)[O-])c1)N1CCCCCC1`, the Potency was inconclusive [inhibitor, partial curve, poor fit].
For `COc1ccc(OC)c(-n2cc3c(=O)n(C)c(=O)n(C)c3c2)c1`, the Potency was inconclusive [inhibitor, single point].
With `COc1ccc(CC(=O)N/N=C(/C)CC(=O)N(C)c2ccccc2)cc1` the Potency was “inactive”.
Potency is read from the fitted curve at half-maximal effect; tags tell the direction and shape of the fitted curve.
